Measured values taken from publication PMC4336329 (PLoS ONE, 2015).
Out of some 310,000 compounds screened, about 2,200 (0.71%) showed an effect of 50% or more. Effects have a minus sign here. This is one part of the list.

Molecular target: human ether-à-go-go-related gene (hERG) potassium channel (human, UniProt Q12809)
Test: primary screen, population patch clamp on CHO cells stably expressing hERG

human ether-à-go-go-related gene (hERG) potassium channel, sequence (Q12809 whole entry, looked up): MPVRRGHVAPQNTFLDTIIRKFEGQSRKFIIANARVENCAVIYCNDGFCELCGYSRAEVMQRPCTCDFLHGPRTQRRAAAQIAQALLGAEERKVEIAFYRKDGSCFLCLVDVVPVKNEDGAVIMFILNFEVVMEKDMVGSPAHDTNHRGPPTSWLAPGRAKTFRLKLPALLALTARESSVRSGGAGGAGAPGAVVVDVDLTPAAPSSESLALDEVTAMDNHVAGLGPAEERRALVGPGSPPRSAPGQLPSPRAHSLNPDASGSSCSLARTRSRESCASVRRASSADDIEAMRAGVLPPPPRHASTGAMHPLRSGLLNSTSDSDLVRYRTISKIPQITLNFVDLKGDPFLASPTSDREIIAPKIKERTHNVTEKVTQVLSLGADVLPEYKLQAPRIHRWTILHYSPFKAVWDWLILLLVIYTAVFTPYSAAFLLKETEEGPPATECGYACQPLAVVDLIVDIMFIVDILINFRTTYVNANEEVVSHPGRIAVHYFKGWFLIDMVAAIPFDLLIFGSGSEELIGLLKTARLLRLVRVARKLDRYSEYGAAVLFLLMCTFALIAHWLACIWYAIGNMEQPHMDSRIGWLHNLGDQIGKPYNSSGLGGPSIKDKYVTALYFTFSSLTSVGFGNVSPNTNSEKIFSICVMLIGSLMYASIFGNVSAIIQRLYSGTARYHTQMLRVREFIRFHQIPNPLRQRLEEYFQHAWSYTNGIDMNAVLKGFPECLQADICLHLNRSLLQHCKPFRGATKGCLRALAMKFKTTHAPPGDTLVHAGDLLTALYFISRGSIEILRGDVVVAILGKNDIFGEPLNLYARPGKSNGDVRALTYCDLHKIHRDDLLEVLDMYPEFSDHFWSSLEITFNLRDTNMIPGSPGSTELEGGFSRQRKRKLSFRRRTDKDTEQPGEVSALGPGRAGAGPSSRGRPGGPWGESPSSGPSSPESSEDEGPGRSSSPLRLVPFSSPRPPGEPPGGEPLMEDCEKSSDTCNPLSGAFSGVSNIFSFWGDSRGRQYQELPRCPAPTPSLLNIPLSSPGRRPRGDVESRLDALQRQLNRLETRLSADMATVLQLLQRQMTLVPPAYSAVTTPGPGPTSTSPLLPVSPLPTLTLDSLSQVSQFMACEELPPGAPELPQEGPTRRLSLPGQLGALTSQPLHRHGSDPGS

Row | SMILES | hERG current change (%, negative = inhibition) at 1uM [%]
1 | COc1ccc(Oc2c(C=O)c3ccccc3n2C)cc1 | 3.54
2 | CCc1ccc(NC(=O)CN2C(=O)CC(C)S(=O)(=O)c3ccccc32)cc1 (stereo not shown) | 7.99
3 | NNC(=O)c1ncoc1-c1ccc(Cl)cc1 | 11.9
4 | CC1CCN(C(=O)CCCN2C(=O)c3cccnc3Oc3ccc(Cl)cc32)CC1 | 0.182
5 | O=C(Cn1nnc(-c2cc(Cl)ccc2-n2cnnn2)n1)N1CCCc2ccccc21 | -14.9
6 | COc1ccc(CCNC(=O)C2CCN(C(=O)c3ccc(Br)cc3)CC2)cc1OC | 12.5
7 | COc1cc(S(=O)(=O)NCc2ccccn2)ccc1Cl | 10.7
8 | O=C(Cn1nnc(-c2ccc3c(c2)OCO3)n1)N1CCOCC1 | 13.6
9 | CC(C)(C)NC(=O)/C(=C/c1ccco1)c1ccccc1 | 6.71
10 | O=C(c1cccs1)N1CCN(Cc2ccccc2[N+](=O)[O-])CC1 | 4.37
11 | Cc1nc(-c2ccc(Br)cc2)ccc1C(=O)O | 11.1
12 | O=C(NCCC1CCCCN1S(=O)(=O)c1ccc(Cl)cc1)C(=O)NCCN1CCOCC1 (stereo not shown) | 13.5
13 | CCn1nc(C)c(CNC(=O)C2CCC(=O)N(Cc3ccc(Cl)cc3)C2)c1C (stereo not shown) | 1.56
14 | CC1(c2ccccc2)NC(=O)N(CC(=O)Nc2ccc(S(N)(=O)=O)cc2)C1=O (stereo not shown) | 9.91
15 | CC(c1ccccc1)N(C)CC(=O)NC(=O)NCCC1=CCCCC1 (stereo not shown) | 3.07
16 | O=C(COC(=O)c1c[nH]c2ccccc12)Nc1cccc(F)c1 | 10.4
17 | O=c1[nH]cnc2scc(C3COc4ccccc4O3)c12 (stereo not shown) | 7.82
18 | Cc1ccc(Nc2nc(N)nc(CN3CCN(Cc4ccccc4)CC3)n2)cc1Cl | -24.5
19 | COC(=O)c1cc(-c2cccc(OC)c2)n[nH]1 | 10.9
20 | O=C(N[C@@H](Cc1c[nH]c2ccccc12)C(=O)O)c1ccc(Cl)cc1 | 4.62
21 | c1ccc(COC2CCCN(Cc3nc(-c4cnccn4)no3)C2)cc1 (stereo not shown) | 4.33
22 | CCN(CC)S(=O)(=O)c1cccc(C(=O)N/N=C(\C)c2ccc(O)cc2O)c1 | 11
23 | OCC1CCCN(c2ncnc3scc(-c4ccccc4)c23)C1 (stereo not shown) | 6.05
24 | O=C(O)C1CCCCC1C(=O)Nc1ccc(S(=O)(=O)N2CCCCCC2)cc1 (stereo not shown) | 14.4
25 | Cc1occc1C(=O)N1N=C(C2CC2)CC1(O)C(F)(F)F (stereo not shown) | 11.9
